This is an account of results in US6153745A, “Relating to mutagenesis of nucleic acids” (Amersham Pharmacia Biotech UK Limited, priority 1995, dated 2000).

Holding throughout (assay type): biochemical
Substrate in data set [1]: Cc1cn([C@H]2C[C@H](O)[C@@H](COP(=O)(O)OP(=O)(O)OP(=O)(O)O)O2)c(=O)[nH]c1=O
The data set is described as follows: Steady state kinetics of insertion opposite template A or G, primed synthetic oligonucleotide templates. Particulars: other: template A, 55° C. An excerpt:
(§1) FIGS. 5A-D show (Top): Plots of initial velocities against [dNTP] for the incorporation by Taq polymerase of dPTP opposite A (A), TTP opposite A (B), dPTP opposite G (C), and dCTP opposite G (D).
(§2) In order to compare the relative efficiencies of insertion of dPTP opposite template adenine and guanine residues respectively, we adopted the procedure of Boosalis et al. (Boosalis et al., 1987 J. Biol. Chem. 262, 14689-14696) for the determination of steady state kinetics using one of two primed synthetic oligonucleotide templates (FIG. 5). The ^32 P-labelled primer in each case was extended by the incorporation of dGTP at two positions, followed by dPTP (template 1 and 2), TTP (template 1) or dCTP (template 2). Separation of the products by PAGE followed by quantitation of the radioactivity using a PhosphorImager allowed the determination of the initial velocities (Boosalis et al., 1987). Due to the very high extension rate of Taq polymerase, the kinetic parameters were determined at 55° C. The velocities for the insertion of the particular triphosphate opposite template (Vmax) and Km values (μM) for particular insertions were determined from non-linear regression fitting to the Michaelis-Menten equation.

Substrate in data set [2]: O=C1NC2=NOCCC2=CN1[C@H]1C[C@H](O)[C@@H](COP(=O)(O)OP(=O)(O)OP(=O)(O)O)O1
Described as above. The settings on record: 55° C.
Description: as §1, §2

Substrate in data set [3]: Nc1ccn([C@H]2C[C@H](O)[C@@H](COP(=O)(O)OP(=O)(O)OP(=O)(O)O)O2)c(=O)n1
The description is as above. The settings on record: other: template G, 55° C.
Description: as §1, §2

Substrate in data set [4]: Cc1cn([C@H]2C[C@H](O)[C@@H](COP(=O)(O)OP(=O)(O)OP(=O)(O)O)O2)c(=O)[nH]c1=O
The data set can be described thus: Rate of DNA synthesis on primed M13 template, apparent Km. Particulars: other: 72° C. As to the method:
(§3) FIGS. 4A-C show: A time course of DNA synthesis in the presence of 12.5 μM [^32 P]dCTP, dATP, dGTP and TTP (open diamonds) or dPTP (full squares). Primed M13mp18 was used as a template for DNA synthesis in the presence of 0.3 U Taq polymerase. FIGS. 4 B and C show the rate of DNA synthesis during the first 80 seconds of the reaction in the presence of 12.5 μM dATP, dGTP and [^32 P]dCTP and the indicated concentrations of dPTP (B) and TTP (C);
(§4) DNA synthesis was measured by the incorporation of [α-^32 P]dCTP using a primed M13 template at 72° C. Incorporation increased linearly in the first 80 seconds when either dPTP or TTP were present. In order to calculate rates of incorporation for different concentrations of substrate, time points were chosen over intervals in which both triphosphate derivatives gave a linear rate of synthesis (FIG. 4B and 4C). […] For TTP, concentrations between 1.25 and 25 μM were used to obtain measurable differences in rates of incorporation over time (FIG. 4C). The apparent Km values for TTP and dPTP were determined by analysing the experimental data by the direct linear plot method (Eisenthal and Cornish-Bowden, 1974 J. Biochem. 139, 715). […] The value for dPTP thus compares favourably with those reported in the literature (Kong et al. 1993) for the four natural dNTPs [14 μM-17 μM].

Substrate in data set [5]: O=C1NC2=NOCCC2=CN1[C@H]1C[C@H](O)[C@@H](COP(=O)(O)OP(=O)(O)OP(=O)(O)O)O1
The description is as above. The settings on record: other: 72° C. As to the method:
as §3, §4

B1: Taq Polymerase (Thermus aquaticus) (protein)
chain: MRGMLPLFEPKGRVLLVDGHHLAYRTFHALKGLTTSRGEPVQAVYGFAKSLLKALKEDGDAVIVVFDAKAPSFRHEAYGGYKAGRAPTPEDFPRQLALIKELVDLLGLARLEVPGYEADDVLASLAKKAEKEGYEVRILTADKDLYQLLSDRIHVLHPEGYLITPAWLWEKYGLRPDQWADYRALTGDESDNLPGVKGIGEKTARKLLEEWGSLEALLKNLDRLKPAIREKILAHMDDLKLSWDLAKVRTDLPLEVDFAKRREPDRERLRAFLERLEFGSLLHEFGLLESPKALEEAPWPPPEGAFVGFVLSRKEPMWADLLALAAARGGRVHRAPEPYKALRDLKEARGLLAKDLSVLALREGLGLPPGDDPMLLAYLLDPSNTTPEGVARRYGGEWTEEAGERAALSERLFANLWGRLEGEERLLWLYREVERPLSAVLAHMEATGVRLDVAYLRALSLEVAEEIARLEAEVFRLAGHPFNLNSRDQLERVLFDELGLPAIGKTEKTGKRSTSAAVLEALREAHPIVEKILQYRELTKLKSTYIDPLPDLIHPRTGRLHTRFNQTATATGRLSSSDPNLQNIPVRTPLGQRIRRAFIAEEGWLLVALDYSQIELRVLAHLSGDENLIRVFQEGRDIHTETASWMFGVPREAVDPLMRRAAKTINFGVLYGMSAHRLSQELAIPYEEAQAFIERYFQSFPKVRAWIEKTLEEGRRRGYVETLFGRRRYVPDLEARVKSVREAAERMAFNMPVQGTAADLMKLAMVKLFPRLEEMGARMLLQVHDELVLEAPKERAEAVARLAKEVMEGVYPLAVPLEVEVGIGEDWLSAKE
B1: the Michaelis-Menten constant (Km) in data set [1] was 6.1 µM; in data set [2] (other: template A), 5.2 µM; in data set [2] (other: template G), 12.1 µM; in data set [3], 2.03 µM; in data set [4], 9.25 µM; in data set [5], 22 µM.
